# Measurements as given in PubChem BioAssay (NCATS).
# Several values for one entry are separate records, joined by “and”; a condition that tells them apart may be missing. Identical values can stand only once. This list was built around the results that the source calls inconclusive (neither active nor inactive); the mix of calls is not that of the screen. No potency is given beside an inconclusive call; the fits are too rough. Activity calls are given as the source filed them. Calls come from the whole dose curve; as a rule, active = well fitted curve in the direction sought with a large enough effect; inconclusive = small, poorly fitted or top-dose-only effect, or another doubt; inactive = no such curve, though single readings can be large; an effect the other way counts as inactive or inconclusive.
# Legend:
# [1] = Viability qHTS for spleen associated tyrosine kinase inhibitor (SYKi) drug resistant MV4-11 cells (AID 1963824); conditions: SYKi-resistant MV4-11 viability, CellTiter-Glo, 72 h; series mostly up to 45 µM; note: nearly all actives have a fitted effect of over 35% in size
# Method in brief: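 SYK inhibitor-resistant MV4-11 AML cells, 500 per well, added to predispensed compounds and incubated 72 hr at 37 C, 5% CO2. Viability measured by CellTiter-Glo luminescence after 10 min at room temperature.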
# [2] = Quantitative highthroughput screen to assess conditional lethalithy of NOMO1 cells grown in RPMI1640 with untreated serum (RPMI+s) (AID 1963876); conditions: NOMO1 AML cells in RPMI+serum, CellTiter-Glo viability, 48 h; viability: at 45.8 µM (top of the series); note: nearly all actives have a fitted effect of over 35% in size
# Method in brief: (§1)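 Each medium arm—HPLM with 10% dialyzed FBS, or RPMI1640 with 5 mM glucose and 10% untreated or dialyzed FBS—was screened against an 11-point, 3-fold compound titration for 48 h at 37 °C, with CellTiter-Glo luminescence as endpoint.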
# [3] = Quantitative highthroughput screen to assess conditional lethalithy of NOMO1 cells grown in RPMI1640 with dialyzed fetal bovine serum (RPMI+ds) (AID 1963877); conditions: NOMO1 in RPMI+dialyzed FBS viability, ATP luminescence, 48 h; series mostly up to 45.8 µM; note: nearly all actives have a fitted effect of over 30% in size
# Method in brief: as §1
# [4] = Quantitative highthroughput screen to assess conditional lethalithy of NOMO1 cells grown in Human Plasma-Like Medium with dialyzed fetal bovine serum (HPLM+ds) (AID 1963878); conditions: NOMO1 AML cells in HPLM+ds, CellTiter-Glo viability, 48 h; viability: at 45.8 µM (top of the series); note: nearly all actives have a fitted effect of over 35% in size
# Method in brief: as §1
# [5] = Quantitative highthroughput screen to assess conditional lethalithy of P12 Ichikawa cells grown in Human Plasma-Like Medium with dialyzed fetal bovine serum (HPLM+ds) (AID 1963879); conditions: ATP luminescence, 48 h; Potency: viability; series mostly up to 45.8 µM; note: nearly all actives have a fitted effect of over 35% in size
# Method in brief: as §1
# [6] = Quantitative highthroughput screen to assess conditional lethalithy of P12 Ichikawa cells grown in RPMI1640 with dialyzed fetal bovine serum (RPMI+ds) (AID 1963880); conditions: ATP luminescence, 48 h; Potency: P12-Ichikawa viability; series mostly up to 45.8 µM; note: nearly all actives have a fitted effect of over 35% in size
# Method in brief: as §1
# [7] = Quantitative highthroughput screen to assess conditional lethalithy of P12 Ichikawa cells grown in RPMI1640 with untreated serum (RPMI+s) (AID 1963881); conditions: ATP luminescence, 48 h; Potency: viability; series mostly up to 45.8 µM; note: nearly all actives have a fitted effect of over 35% in size
# Method in brief: as §1
# [8] = Quantitative highthroughput screen to assess conditional lethalithy of SEM cells grown in Human Plasma-Like Medium with dialyzed fetal bovine serum (HPLM+ds) (AID 1963882); conditions: SEM B-ALL cells in HPLM+ds, CellTiter-Glo viability, 48 h; series mostly up to 45.8 µM; note: nearly all actives have a fitted effect of over 35% in size
# Method in brief: as §1
# [9] = Quantitative highthroughput screen to assess conditional lethalithy of SEM cells grown in RPMI1640 with unreated serum (RPMI+s) (AID 1963883); conditions: SEM B-ALL cells, CellTiter-Glo viability, 48 h; viability: at 45.8 µM (top of the series); note: nearly all actives have a fitted effect of over 35% in size
# Method in brief: as §1
# [10] = Quantitative highthroughput screen to assess conditional lethalithy of SEM cells grown in RPMI1640 with dialyzed fetal bovine serum (RPMI+ds) (AID 1963884); conditions: SEM B-ALL cells, RPMI+dialyzed FBS, CellTiter-Glo viability, 48 h; viability: at 45.8 µM (top of the series); note: nearly all actives have a fitted effect of over 35% in size
# Method in brief: as §1
# [11] = Cellular viability qHTS for adrenocortical cancer (ACC) cell line SW-13 (AID 1963989); conditions: SW-13 ACC cells viability, CellTiter-Glo, 48 h; activity (max response): active compounds read low; note: nearly all actives have a fitted effect of over 65% in size
# Method in brief: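 Compound titrations (up to 46 uM final, in DMSO) were applied to SW-13 cells for 48 h at 37C/5% CO2. Reading used CellTiter-Glo after 20 min at room temperature; fitted curves yielded IC50 and efficacy.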
# [12] = Cellular viability qHTS for adrenocortical cancer (ACC) cell line NCI-H295R (AID 1963990); conditions: CellTiter-Glo ATP luminescence, 48 h; series mostly up to 46.1 µM; note: nearly all actives have a fitted effect of over 60% in size
# Method in brief: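 Readout: CellTiter-Glo luminescence, 20 min RT. Exposure: 48 h, 37C/5% CO2. Cells: NCI-H295R, ITS-DMEM serum-free. Range: up to 46 uM. Analysis: 4PL fit, IC50 plus efficacy.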
# Potency is the fitted concentration of half-maximal effect; tags give direction and shape of the fitted curve.
SMILES,Potency [1],Potency [2],Potency [3],Potency [4],Potency [5],Potency [6],Potency [7],Potency [8],Potency [9],Potency [10],Potency [11],Potency [12]
FC(F)(F)C(Cl)Br (stereo not given),inactive,,,,,,,,,,,
CCOC(CN1C(=O)[C@](CC(=O)Nc2ccc(C)cc2)(NC(=O)Nc2ccc(C)cc2)c2ccccc21)OCC,active: 14.8 µM,"inconclusive [cytotoxic, partial curve]","inconclusive [cytotoxic, partial curve]","inconclusive [cytotoxic, partial curve]","inconclusive [cytotoxic, single point]","inconclusive [cytotoxic, single point]","inconclusive [cytotoxic, single point]","inconclusive [cytotoxic, partial curve, poor fit]","inconclusive [cytotoxic, full curve, poor fit]","inconclusive [cytotoxic, single point]","inconclusive [cytotoxic, single point]","inconclusive [cytotoxic, single point]"
CC[C@H](CC#N)OC(=O)N[C@@H](C)c1cccc(NC(=O)Nc2ccc(-c3cnco3)c(OC)c2)c1,active: 231 nM and active: 263 nM,"inconclusive [cytotoxic, full curve]","inconclusive [cytotoxic, full curve]","inconclusive [cytotoxic, full curve]","inconclusive [cytotoxic, full curve]","inconclusive [cytotoxic, full curve]","inconclusive [cytotoxic, full curve]","inconclusive [cytotoxic, full curve]",,"inconclusive [cytotoxic, full curve]",,"inconclusive [cytotoxic, partial curve, poor fit]"
O=C(/C=C/c1ccc(O)cc1)OC[C@H]1O[C@@H](O/C(=C\c2ccccc2)C(=O)O)[C@H](O)[C@@H](O)[C@@H]1O,"inconclusive [cytotoxic, full curve, poor fit]",,,,,,,,,,,
O=C(Nc1nnc(-c2ccco2)o1)c1cc(-c2ccccc2)nc2ccccc12,active: 13.2 µM,"inconclusive [cytotoxic, single point]","inconclusive [cytotoxic, single point]",active: 5.9 µM,active: 4.69 µM,"inconclusive [cytotoxic, single point]",,"inconclusive [cytotoxic, single point]",active: 4.69 µM,,,
CC[C@@H](O)C[C@@H]1C(C)=C[C@@H]2CCCC[C@@H]2[C@@]1(C)C(=O)O,"inconclusive [cytotoxic, full curve, poor fit]",,,,,,,,,,,
CC(C)CNc1ccnc(NCc2csc(-c3ccccc3)n2)n1,active: 1.16 µM,"inconclusive [cytotoxic, partial curve]","inconclusive [cytotoxic, partial curve]","inconclusive [cytotoxic, partial curve]","inconclusive [cytotoxic, partial curve]","inconclusive [cytotoxic, partial curve]","inconclusive [cytotoxic, full curve]","inconclusive [cytotoxic, full curve]","inconclusive [cytotoxic, partial curve]","inconclusive [cytotoxic, partial curve, poor fit]",,
Cc1ccc(S(=O)(=O)NC(=O)NC2CCCCC2)cc1,inactive,,,,,,,,,,,
CC(C)(Cc1ccc2ccccc2c1)NC[C@@H](O)COc1cccc(Cl)c1C#N,active: 6.61 µM,"inconclusive [cytotoxic, single point]","inconclusive [cytotoxic, single point]","inconclusive [cytotoxic, single point]","inconclusive [cytotoxic, single point]","inconclusive [cytotoxic, single point]","inconclusive [cytotoxic, single point]","inconclusive [cytotoxic, partial curve]","inconclusive [cytotoxic, partial curve, poor fit]","inconclusive [cytotoxic, partial curve, poor fit]",active: 6.31 µM,
